Measured values as given in the supplement of paper PMC10681739.
± gives the standard deviation of the averaged measurements. Over roughly 4,100 sequences, “arbitrary fluorescence units” has its median near 780; the highest 2% begin near 22,000. The list shows a part of the results.

target: T1, ETS1 (UniProt P14921); experiment: ETS1 binding intensity (PBM fluorescence), ETS1 alone (arbitrary fluorescence units); higher = stronger binding; conditions: ETS1 concentration 1 nM; RUNX1 concentration 0 nM
T1 sequence: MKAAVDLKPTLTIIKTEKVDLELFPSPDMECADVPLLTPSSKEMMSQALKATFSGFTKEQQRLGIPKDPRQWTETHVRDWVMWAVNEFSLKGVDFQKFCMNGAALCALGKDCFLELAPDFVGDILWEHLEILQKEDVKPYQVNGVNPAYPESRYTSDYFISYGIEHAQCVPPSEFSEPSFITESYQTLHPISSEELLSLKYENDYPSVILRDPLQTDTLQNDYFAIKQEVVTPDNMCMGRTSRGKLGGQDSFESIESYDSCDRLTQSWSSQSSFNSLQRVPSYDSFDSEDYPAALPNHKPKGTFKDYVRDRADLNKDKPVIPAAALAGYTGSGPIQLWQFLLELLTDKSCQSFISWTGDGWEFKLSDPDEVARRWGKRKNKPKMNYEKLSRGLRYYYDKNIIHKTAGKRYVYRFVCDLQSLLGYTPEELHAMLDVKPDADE
In short: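 Recombinant full-length human ETS1 was applied at 1 nM, without RUNX1, to double-stranded Agilent 4 × 180k arrays of 36-bp genomic probes carrying a mutated RUNX1 partner site, following standard PBM protocols. Detection used an anti-ETS1 antibody (Cell Signaling Technology 14069) and an Alexa488-conjugated secondary antibody, with scanning on a GenePix 4400A. Each sequence was printed as four replicate spots. Binding level is the spot fluorescence intensity, summarised across replicates and not normalised.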

Sequence | ETS1 binding intensity
TCAGAGACTTCCGCTCAGCAGCAGCTTCGGCCAGGC | 17200
CGAGCGCAGGATGGGGTTGTCGAACGCGCGGCGAGC | 387
CAGGCCGAAGGGGAGAGGCACGTCCAGGAAGATCTA | 393
GATGTGACTTGCCAAAAAAAAGCATATCCTTGGGTG | 392
CAGTTTACAGCACGGTGGGGCCTGTCTCCGGAATCG | 456
AGTCGGAAGCCATCTGCCCCAACTTGGGGTCTTCAC | 337
TCCTCTCTCTTCCTCCCTCTGGCTACAAGCTGTGCC | 877
GTGGCGGGGCGGAAGTTCACATGTGTGATATGTAGA | 5430 ± 610
CTTCAGGAGACAACAGTTCTCAGGCTTCCTCCCTTC | 353
GCGCGCTGTAGCAATTGGAGGACCCAGGAAGAAGGG | 346
TTGCAAGAAATCGCTGGCCATGGCACTTCCCAGTGT | 371
CACGGTCTTTGCCGCTCAGCTTCCCGGAGTCCGCGC | 458
AGCGATTTCCTTCTCGGGCCCCTGGGCTTCGGCAGT | 2950
GCCGCCGCCGTAGGCCCCAGACCGGAAGTGAATGCC | 12600
CCGGGCTGCGGAAGGCGGGAATTCTGCTGTTCGCGG | 380 ± 24
AGGGATGCTGGGAAATGTAGTCCAGCCCCAAGCCAA | 321
TGGGAGACCCCAAAGCCCAAGGCGGAAGCCATGTCA | 390
ACACAAACAGGAAGTGTTTGTAGTCCCTGCCTTTAG | 8530
GACCCATAGCGGAAAATTCTACAGCACTACCTCCCT | 462
AGACAGTCACTCAGCACAAACAGGAAATAGAACAAG | 5480
AGGCTTCCGGCCACGCCCCCTTCCCGAGGTTGCTAG | 20600
TGCCCGAGGGCCGCCGCCTCCGTATTTCCGCGTTTT | 429
TCCCGCTTCGGCCAACAGCCGGGCCACTTCCGGGGC | 2910
CTCCATTATTCCGGCCAGGTGCCCTTCTGGGATAAG | 670
TGGATGGCGGCGGATACTGCCCATGCCGCGAGGCCG | 458

Sequence | ETS1 binding intensity
GCGAATCTACGGCATCCAACATGGCGGATGGAGTCT | 331
ACCACCCACTTCCCGCGCAGTTCCAAACGGCGACCA | 3010
GAGGCAGTGCGTTTACTGTGTATTTCCTTCTCTGGT | 512
ACTTAGACGCCGAAACCCCAGTTCCGCGCTTGCTGC | 422
GACGCAGCCCCAGAGCGATTCGCGTCCCGGAAGCGG | 491
AGTCTGGCTCTGACAACAAGGCAGGAAATAGCTCAT | 1760
GGTTCCTTGACGTTCGCGGCGTGCCGGACGTGACAA | 475
ACCTCCGTCCGGCCCGCGGGACCAGGGTGCAGGTCC | 1570
ACACAGTGTTTGGGGTGAATGGCTTCCGGCCCCATA | 2140
AAACTACATTTCCCAGCATCCCGCGCGCCGCCGACC | 448
CGGGTTGAGAACCCCAGCCTTCACATCCGGCTTTTT | 2890
TGGCGCCGGAAAACTGGCGATGCAGGTGGGCGCGAA | 422
TCCCCCTAGATAAGGAAGCAGACCAGAGAGTCTCAG | 393
CAAGCCACCTAATTAGGATAATGGAGAGGAAGCCCA | 352
GAGACAGGAAATGTAGACTTGAGTCCTGTGATAAAC | 6070
TGGATATACCTGCAGGTCCAGAATCGTTTCCGGACC | 717
AGCCTCTTCCTGCTCCTGATCAGCGCTTATCTTGCT | 5120
TGCCGCTGTTCACATGCTGGTCACACCACTTCCTGA | 674
AGTTTCCTGAACTCAGAGCACAGTTCTGGTGCAGAA | 6300
GGAATCCACCTCTGTCCAACCCGGCTTCCTCTCCCG | 513
AGGAGCCCTCAGCCCTGGGAGTGTTTCCTGTTTGCC | 1360
GGCAAACAGGAAACACTCCCAGGGCTGAGGGCTCCT | 6050
GTCTCTTGGTAGTTGATAAGCTAAACGGAAGTGAGT | 1170
CACTTCCTATCGCTACATAACAAATTATCACAGACT | 10500
AGGCTTCTCCCGGACGTCTCTTTGGGGTGGCGTTGA | 473

Sequence | ETS1 binding intensity
CCTGACTTCCTCCTCCCCCTCCCGCCCCAATTCCGC | 4620
GGGCTCCAGTTCCGCTGTCTGAGGGTCTCGCGCGCC | 1890
GGATGGCGGAAGAGGCGGCTGAGGCCGTAGGACGTG | 931
GTAGGAACAGCGATGTACAGACAGGAAACCCAGGTC | 807
GACCTGAGGTGGAGGGCGCGACCTTGGCTTCCTGGC | 379
TTTTCCCACTTCCTAGGTTGTCGTGGGGATTACACA | 2130
CCTCCTTCCTCCCTGAGGGGGAGGTGCTTTTTGAGT | 1560
AACCTGAGGGTGGGAGGTGAAGCGGAACGGTCCCGG | 421
TAATGCTGTTGCTCACTTAACAGACTACAGGATGGT | 374
CCTCTCTGTCGTTCTGCCTGGAAGACGGAAGGCAGG | 501
TGGAAGCGGCTTCCGGGGTGAATGCTGTTGGATCGT | 9350
TCGCCTGCGTTCCGCTGGTTGAGGGCTTTCAGCGGC | 286
GCTCTCTGGGCTTGGAGGATGCAGGCGCCTTCCTGG | 338
ACAATAGGAAGCTTCTCTGTGATTTTGAGCCCCAAA | 498
GCCGCCTCTTCCTGTGTTGCAAATCACAGGTCCACC | 9760
CCCCAGGTTGCTTCCGTTCTGGGAATCGCGTCCTCG | 6890
CTGAGGGTAACTGAAATCACAGCAAGCGGAACTGTA | 413
GGAGGCTCTGGTGAGGAAAGAGGAAGTGACACTCCT | 1200
TAGTCCAGATACCGAGGGGCACGTCGGAAGCTGATA | 370
AACATCCTGTGTAAAGAGAATTGAATGTAGTTTTCT | 25200
GAGCAACCAGGAAGAGCTTTGGCTGAGGGCTAAGAT | 552
CCGCTGAGCCTTCCGCCCAGGCCACCTGCACTCAGC | 1340
CAAGCTGGCAGGAAGCGCGGTGCAACCCCAAGAGTC | 2370
CTGTCATCTTCCTGACAGCACGCTCACAAAGGACCA | 648
CGTAGACACCTTCCGCTGCACCCAGCCCCAGCTGGT | 2460

Sequence | ETS1 binding intensity
CTGGCCGTGGCGTCCGGGAGCTGAGGGGCCGTCCCC | 484
AGGCCGTGCAGGAAATGAGACCTACAGCCACGTCAC | 3810
GCGCAGAGGACAGCGGCGACCGGAAAAGCAAGGCAG | 1920
GACCTGGGTTTCCTGTCTGTACATCGCTGTTCCTAC | 10100
TGACTTCCGGTCCGTAGTGGGGCCTTCGGTGGGAGT | 35800
TTGGGGTTGCCGGGGATCGCTGTTGCCATCCTGACT | 378
GCTGCGCAGAGGAAACCAGGCTTGTTGGTGTTCATG | 412
GAGTTCCGCCTCGCCGTTTGTCCCTTACGGTACCCG | 2490
TCGGCTGCAGGAAAGGCACGCCGTCTCCCTCTTGGC | 341
CTGCACTTCCGGTCAGGCGGTCGGGCTGAGGGGCCC | 36600
ACTACAGGAGGAAACTACAGCCTAAACTACATGCAA | 534
GTCCCTTGGGGCTACACAGGCAGGAAGCAGGTGGCA | 767
AAAGAATGTTACGGCCAGAGAGCATCCGCTGTCGCT | 812
CTCAGAGCTGCGGAAACTACAACTCCCACTAGGCTG | 529
GGAGCAGAGACCTCGATTACTCAACAGGAAAGAGAG | 405
TCCCACTGCGACGGAAGCACAGCGGCTAAGATTGCA | 558
AGATGAGGAAGTTGGGGTTTAGAGTGCTTAAACTGT | 1200
GATATGCAGAAATCCAACCTACAGGAAGGTGAGTCA | 416
TTATCCACTGTTCTCTAAATACTGTACATCCTTTAT | 684
GCAGCGTTTCCTTCCACGGCAGCGGCAGCGGGCGCT | 2300
GCGCAACGAACAGCAGGTACCGGAAGAGCACACTTC | 2160
CCCTTCTTCCTGGGTCCTCCAATTGCTACAGCGCGC | 2570
CACTTCCTCCTCGGGGGCCTCAGAAAATCACAGGGC | 13200
TCCCGGGAGCGGATTTAGGGGGCCGCTTCCTTGGCC | 435 ± 20
GCCTCGCGGCGCAGGCCGCTCCCGGATGTGTGCCTG | 528

Sequence | ETS1 binding intensity
GACACCCAGGCCGCTGGCACTTCCCACCCCACCCCA | 374
AAAAACAAGGAAGCCTGAAGGGAAGGCGGGTGAAAA | 497
CACCTTGTAGTTTCTCTGAGTGTCACACATCCCCAG | 581
CTCTGAACCCCATGATCTCTAAGACCACTTCCTGTT | 2780
TTAGGACCCAGCGGAGGGCTCTCCGGAAGGGGAAGG | 387
CCAGCACTCCCCCAAGCCGCCGGAAGTCAACTCTCC | 2960
CACCTGCCCAGCCGCCAGCTTCCTTTCTCATTCTTG | 701
GGCTACGGAAACTCGCGAGAGCGAGGTTCAGAGGCA | 462
CAGCCGCCGACTTCCCCAGTAGTAACGCGCCGCTCC | 885
ACAATGAGTGCTTTTCTGAAGTTCCGGACCATCTGT | 511
CCCACAGGAAATCCCCTGGTCCGTGGCGCCTCTGAT | 3150
CGTGGCGGAAGCCGCGGGGACAGCGGGGGCGGAGTG | 1560
GTAAGAACTACAACCCCTCGAGAGGAAGCACTTTTG | 442
CTGAGCCACCGAAGCCAGTCTTTTATGCATCCGGCG | 487
CTGCAGCGGGGGCTGACATCACAGCAAGGAAACTGT | 523
CAGGGAGCGGGCGGAACCTTTCTACCGAGTCTCTAG | 423
TAGGTTTGGGGTAGAAGCTGCAGGAACTTCCTGTCC | 1710
TTGAGCCTAAGCACTGCACGAGCACAGGATGTGGGA | 526
TTACACAACAGGAAACTATGTTTAGCGGCTAATCCA | 3090
AGCTTTACGGCAGTGTGCGCCCCGGAAGCCTGAAGC | 702
TTCAACAGGATGTGGGAACTTGACTCTCGCCGTAAA | 4800
CGTGGCGCTATCCCGGAGCCTGCCGTCCGGCCCTAC | 377
GGCCCCAACGCTGTTAGCGCTTCCGAAAACTCCCCC | 417
GGCTCTGCCGTCCGCTGACAGGAAGACGCTGACGAC | 973
ATCTCAACTAGGAAATGTTTTTGTGACCAAAAAGGG | 508
